Results: PubChem BioAssay AID1347073 (National Center for Advancing Translational Sciences (NCATS), 2019)
The campaign covered roughly 45,000 compounds. About 200 (0.44%) were called active. Another 7% or so got no clear call; they are omitted. The call rests on the fitted dose curve; in most records, active means well fitted activation curve with a large enough effect; inconclusive means small, poorly fitted or top-dose-only effect; inactive means no such curve, though single readings can be large or run the other way. This is one part of the list.

assay: qHTS of TDP-43 Inhibitors: NCGC Sytravon Library Screen; conditions: yeast TDP-43 toxicity rescue, BacTiter-Glo growth, 24 h; series mostly up to 46.1 µM; growth rescue (activation): at the top concentration; further: 0% is about no effect; nearly all actives have a fitted effect of over 55% in size
Procedure, shortened: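 TDP-43-expressing yeast, pregrown in raffinose, seeded at OD600 0.02 in galactose medium with compound for 24 hr at 30 deg C. Growth read by BacTiter-Glo luminescence, so rescue of toxicity appears as activation.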

Compound | growth rescue (activation)
CCOC(=O)c1c(CN(CC)CC)n(C)c2cc(Br)c(O)cc12 | inactive: 11.1%
O=C(N/N=C/c1ccccc1)c1ccc(CN2C(=O)c3cccc4cccc2c34)cc1 | inactive: 30%
Cc1c(C(=O)NCc2ccccc2Br)oc2ccc3c(c12)C(=O)CC(C)(C)O3 | inactive: 5.15%
O=C(OCc1nc2ccccc2s1)c1ccc(Br)o1 | inactive: -1.75%
CS(=O)(=O)N1c2cccc3cccc(c23)S1(=O)=O | inactive: 9.64%
CSCCC(NS(=O)(=O)c1ccc(C)cc1C)C(=O)Nc1cccnc1 (configuration not stated) | inactive: 2.83%
CC(=O)NC(CC(=O)NC1CCCCC1)c1ccccc1 (configuration not stated) | inactive: 5.69%
COc1ccccc1N1CCN(C(=O)c2cc(S(=O)(=O)N3CCCCC3)ccc2C)CC1 | inactive: 13.5%
CCOc1cc(N2CCOCC2)c(OCC)cc1NC(=O)COC(=O)c1ccccc1OC(F)F | inactive: 14.8%
CC1(C)C(=O)Nc2ccccc2N1C(=O)COC(=O)Cc1ccccc1F | inactive: 21.9%
CCCCc1nc2cc(C(=O)NCCc3cnn(C)c3)ccc2o1 | inactive: 5%
CCSc1nnc(NC(=O)c2cc(C)nc3ccccc23)s1 | inactive: 2.75%
Cc1cccn2c(=O)c(C=C(C#N)C#N)c(N3CCN(C)CC3)nc12 | inactive: -2.92%
COc1ccc(-c2cc(C(=O)Oc3cccc(C)c3C)c3ccccc3n2)cc1 | inactive: -0.424%
O=C(CSc1nnc(-c2ccccc2O)n1-c1ccccc1)Nc1cccc(C(=O)O)c1 | inactive: 12.7%
Cc1ccc(CN2CCN(/N=C/c3cc(Br)cc(Br)c3O)CC2)c(C)c1 | inactive: -13.4%
N#CC1=C(N)Oc2n[nH]c(-c3ccc(F)cc3)c2C1c1ccncc1 (configuration not stated) | inactive: 16.9%
Cn1c(O)c(N=NC(=O)c2ccco2)c2ccccc21 | inactive: -9.31%
COc1cc(C(=O)OCC(=O)Nc2ccc(C)cc2)cc(OC)c1OC | inactive: 5.84%
CCc1nc2ccccc2n1Cc1ccccc1F | inactive: 3.91%
CN(CC(=O)Nc1ccc(F)cc1)CC(=O)Nc1ccc(Cl)c(S(=O)(=O)N2CCOCC2)c1 | inactive: 22.9%
Cc1c(C(c2cc(O)ccc2O)c2c(C)n(C)n(-c3ccccc3)c2=O)c(=O)n(-c2ccccc2)n1C | inactive: -11.7%
Cc1c(Cl)cccc1NC(=O)CCN1C(=O)C2CC=CCC2C1=O (configuration not stated) | inactive: 16.9%

Compound | growth rescue (activation)
O=C(c1ccc(S(=O)(=O)N2CCOCC2)cc1)N(c1cccc(Cl)c1)C1C=CS(=O)(=O)C1 (configuration not stated) | inactive: 9.06%
CCOC(=O)N1CCN(C(=O)C(CC)n2nc(C)c3sc4ccccc4c3c2=O)CC1 (configuration not stated) | inactive: -3.01%
O=C(Nc1ccc(N2CCN(C(=O)c3ccc(Cl)cc3)CC2)cc1)c1cccnc1 | inactive: 5.72%
Cc1ccc2cc(C#N)c(N3CCCN(C(=O)c4cnccn4)CC3)nc2c1 | inactive: 2.14%
O=C(O)CCCNS(=O)(=O)c1ccc2c(c1)OCCCO2 | inactive: 10.5%
C/C(CC(C)C)=N\Nc1ccc(S(N)(=O)=O)cc1[N+](=O)[O-] | inactive: 14.1%
COc1ccc(-c2nc3c(c(=O)c4ccccc4n3C)c(=O)n2Cc2ccccc2)cc1 | inactive: -30.7%
CCOC(=O)c1ccc(-n2c(C)nc3ccccc3c2=O)cc1 | inactive: 18.2%
Cc1ccc(S(=O)(=O)N2CCOCC2)cc1C(=O)OCC(=O)NC1CCS(=O)(=O)C1 (configuration not stated) | inactive: -3.19%
C=CCOC(=O)C1=C(C)N=C2SCCC(=O)N2C1/C=C/c1ccccc1OC (configuration not stated) | inactive: 8.45%
C=CCNC(=S)NNC(=O)c1ccc(=O)n(Cc2ccccc2)c1 | inactive: 2.21%
Cc1ccc(NS(=O)(=O)c2cccs2)cc1S(=O)(=O)N1CCCCCC1 | inactive: 5.22%
O=C(Nc1ccccc1-c1ccccc1)NC1CC2CCCC(C1)N2Cc1ccc(F)cc1 (configuration not stated) | inactive: 6.45%
Nc1cc(=O)[nH]c(SCC(=O)Nc2ccc(Oc3ccccc3)cc2)n1 | inactive: -10.8%
Cc1ccc(NC(=O)C(C)Sc2nnc(C)n2CC2CCCO2)cc1 (configuration not stated) | inactive: -8.56%
COc1ccc(S(=O)(=O)NC(=O)C2(C)CCN2C(=O)CCC2CCCC2)cc1OC (configuration not stated) | inactive: -12.7%
N#Cc1ccc(C(=O)N(Cc2ccccc2)c2ccccc2)cc1 | inactive: 26.4%
Cc1ccc(C(=O)CSc2nc(-c3ccccc3)ccc2C#N)cc1 | inactive: 5.16%
CC(C)(C)C(=O)CN1C(=O)NC(c2ccccc2)(c2ccccc2)C1=O | inactive: -5.15%
COc1cc(-c2nn3c(C4CCCCC4)nnc3s2)cc(OC)c1OC | inactive: -3.19%
CC(=O)c1ccc(NC(=O)CN2CCC(C(=O)c3ccc4c(c3)OCCO4)CC2)cc1 | inactive: 16.9%
O=C(Nc1cccc(Br)c1)C1CC(=O)N(C2CCCC2)C1 (configuration not stated) | inactive: 6.09%
CC(NC(=O)C(C)N1c2cccc3cccc(c23)S1(=O)=O)c1ccccc1 (configuration not stated) | inactive: -12.6%

Compound | growth rescue (activation)
Cc1ccccc1N1CCN(C2CCCN(C(=O)c3ccc(Cl)s3)C2)CC1 (configuration not stated) | inactive: 17.7%
Cc1ccc(-c2n[nH]c(=S)c3ccccc23)cc1 | inactive: 4.21%
CN(c1ccccc1)S(=O)(=O)c1ccc(Cl)c(C(=O)NCc2ccco2)c1 | inactive: 1.21%
Cc1ccc(N2CC(C(=O)N3CCC(C(=O)Nc4nnc(C(C)C)s4)CC3)CC2=O)cc1 (configuration not stated) | inactive: 14.4%
CCOc1ccc(N2C(=O)CC(N(CCc3ccc(OC)cc3)C(=O)c3cccc(F)c3)C2=O)cc1 (configuration not stated) | inactive: 15.3%
COc1ccc(NC(=O)C2(C)CCCN(C(C)=O)C2)cc1F (configuration not stated) | inactive: -14.1%
COc1cccc(N=c2oc3cc(O)ccc3cc2C(=O)NCC2CCCO2)c1 (configuration not stated) | inactive: 13.2%
COc1ccc(N(C(C)=O)c2nc(C)cc(C)c2C#N)c(OC)c1 | inactive: -15.4%
CCC(C)NC(=O)C1CCC(=O)N1Cc1ccc(C)cc1 (configuration not stated) | inactive: 9.82%
CCCCOc1ccccc1/C=N/NC(=O)CC#N | inactive: -2.41%
CCC(CO)NC(=O)c1cccc(S(=O)(=O)N2c3ccccc3CC2C)c1 (configuration not stated) | inactive: -15.7%
O=C(OCc1nnc(-c2ccc([N+](=O)[O-])cc2)o1)C1CCN(C(=O)c2ccc(Cl)cc2)CC1 | inactive: 15.7%
COc1ccc(CNC(=O)N2CCN(S(=O)(=O)c3ccccc3)CC2)cc1 | inactive: -20.6%
O=C(N/N=C/c1cc(Br)cc(Br)c1O)c1cccc(N2CCCC2=O)c1 | inactive: 4.95%
Cn1cccc1CNC(=S)Nc1cc(F)cc(F)c1 | inactive: -3.75%
N=C1CCCN1CC(=O)c1ccc(Cl)cc1 | inactive: 13.6%
Cc1csc(SCC(=O)Nc2ccc(Cl)cn2)n1 | inactive: 3.88%
CCOC(=O)C1CCCN(C(=O)c2cc(-c3cccs3)oc2C)CC1 (configuration not stated) | inactive: 34.1%
O=C(CCl)Oc1ccc2occ(C(=O)c3cccs3)c2c1 | inactive: -8.88%
O=C(O)CSc1c2c(nc3cc(C(=O)NCCN4CCOCC4)ccc13)CCC2 | inactive: 15.3%
COc1ccc(CC(=O)N2CCc3cc(OC)c(OC)cc3C2)cc1 | inactive: 4.77%
